Results from the supplement of paper PMC12217912.
This is one part of the list. Sequences were assembled here from the parent chain. Inactive controls read about 0.05.

B1: TEV protease; numbered along this chain (parent)
chain: MGESLFKGPRDYNPISSSICHLTNESDGHTTSLYGIGFGPFIITNKHLFRRNNGTLVVQSLHGVFKVKDTTTLQQHLVDGRDMIIIRMPKDFPPFPQKLKFREPQREERICLVTTNFQTKSMSSMVSDTSCTFPSGDGIFWKHWIQTKDGQCGSPLVSTRDGFIVGIHSASNFTNTNNYFTSVPKNFMELLTNQEAQQWVSGWRLNADSVLWGGHKVFMVKPEEPFQPVKEATQL

Variants of: B1
Assay: raw area under fraction-flipped curve 0-4 h after induction (AUC4h, not background-subtracted), DNA-recorder readout of cleavage of the substrate (dimensionless); higher = more cleavage of the substrate by the protease variant
Details: temperature: 34 °C; time window: 0-4 h after rhamnose induction
Description: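 In vivo DNA recorder in E. coli TOP10(DE3) ΔrhaA at 34 °C. Each TEVp single-site mutant (parent TEVp 0) is paired with a single-site variant of the 7-mer TEVs (canonical ENLYFQ|S). The substrate sits between flexible linkers in a Bxb1-sfGFP-TEVs-SsrA fusion, so cleavage stabilises Bxb1 and speeds flipping of a recombination array, read by NGS. The value is the raw area under the fraction-flipped curve over 0-4 h after rhamnose induction (AUC4h), with ≥20 reads per time point. It is not background-subtracted; inactive controls average about 0.047.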
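Also: Bxb1 expression induced with 0.2% (w/v) L-rhamnose at OD600 near 0.5, cultures sampled hourly, flipped fraction per protease–substrate barcode pair counted by paired-end Illumina sequencing.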

Variant	area with substrate ENAYFQS	area with substrate ENDYFQS	area with substrate ENEYFQS	area with substrate ENFYFQS	area with substrate ENHYFQS	area with substrate ENIYFQS	area with substrate ENNYFQS	area with substrate ENPYFQS	area with substrate ENQYFQS	area with substrate ENTYFQS	area with substrate ENVYFQS	area with substrate ENYYFQS	area with substrate ENGYFQS	area with substrate ENKYFQS	area with substrate ENMYFQS	area with substrate ENSYFQS	area with substrate ENRYFQS	area with substrate ENWYFQS	area with substrate ENCYFQS
K66R	0.0577	0.0719	0.046	0.0652	0.0918	0.102	0.0691	0.0383	0.0749	0.0704	0.0819	0.0872	–	–	–	–	–	–	–
K66F	0.0612	0.0565	0.057	0.0606	0.063	0.113	0.0683	–	0.0639	0.0696	0.0814	–	0.0687	0.0419	0.0645	0.0752	–	–	–
P94Q	0.0692	0.0651	0.0629	–	0.0509	–	0.0623	0.0485	0.0601	–	0.0711	0.0401	0.0717	–	0.0741	0.0615	0.0632	0.0477	–
P94D	0.0653	0.0638	0.0499	–	0.0458	–	–	–	0.055	–	0.0969	–	0.0461	0.0458	–	–	–	–	0.0621
P94Y	0.0553	0.0668	0.0603	0.0664	–	–	0.0523	0.0344	0.0524	0.0593	–	0.0476	–	0.0666	0.0875	0.13	–	–	–
P94E	0.0615	–	0.0507	–	–	0.0962	0.0665	0.0555	0.0091	0.0755	0.0791	0.0463	0.0563	–	0.0885	0.0579	–	0.0565	0.0764
L73G	0.0369	0.0604	–	0.0511	–	–	0.0524	–	0.0602	0.0557	0.0524	0.0301	–	0.0415	–	0.0501	0.0459	0	0.0475
K98Q	0.0613	0.057	–	0.0508	–	–	–	–	–	–	–	0.0662	0.0615	–	0.0746	0.106	–	0.0274	–
Q74D	0.0674	0.028	0.0719	0.0655	0.0659	0.0956	0.0484	0.0627	0.0644	0.0583	0.0632	0.0441	0.0648	0.0605	–	0.067	0.0548	0.0629	0.0768
Q74H	0.0192	0.0564	0.0609	–	–	–	–	0.0886	0.04	–	–	–	0.0575	–	–	0.0836	–	–	–
H76E	0.0605	0.0535	–	–	0.0713	–	0.057	0.0667	0.0569	–	0.0594	0.0617	0.059	–	0.0644	0.0562	–	–	–
K100W	0.051	0.0699	0.0527	0.0686	0.0544	–	0.0618	0.0388	0.0582	0.0587	0.0717	–	0.0625	–	0.0913	0.062	0.0525	–	–
K100T	0.0518	–	0.0602	0.0706	–	–	0.0607	0.0452	0.0767	0.0565	–	0.0498	–	–	0.0905	–	0.0653	–	–
K100N	0.0518	0.0689	0.075	–	0.103	–	–	–	0.0452	0.0563	–	–	–	0.0769	–	0.0671	0.0551	–	–
V78G	0.049	0.0633	–	0.0566	–	–	0.0688	–	0.0563	–	0.0708	–	–	0.0455	–	0.0548	–	–	0.0662
V78A	0.0716	–	0.0628	0.0526	0.0729	0.0687	0.0638	–	0.0424	0.0389	0.0584	0.052	0.0459	–	0.0629	0.0573	0.0541	0.0471	0.057
I85C	0.0429	0.0554	0.0591	0.0536	–	0.0922	0.0488	0.0717	0.0585	0.0595	0.0605	0.0517	0.0635	0.049	0.0633	0.0522	–	–	0.0566
I85F	0.0538	0.0655	0.067	0.0499	–	0.0888	–	0.0533	0.0537	–	–	–	–	0.0444	0.0857	0.0635	0.0517	–	–
D79G	0.0577	–	0.052	0.0631	0.0665	0.109	0.0589	0.0569	0.0768	0.0653	–	0.0636	–	0.0506	0.0569	0.0569	0.0492	0.0531	0.0335
D79V	0.0631	0.0594	0.0594	0.0668	0.0553	–	0.0576	0.0453	–	0.0744	–	–	0.053	–	0.0806	0.062	0.0523	–	0.0747
F101Q	0.0466	0.0506	0.0323	–	0.0611	0.0336	–	0.0521	0.044	0.0389	0.0644	–	0.0629	0.0732	0.0617	0.0512	–	–	0.0498
E108N	0.0496	0.061	–	–	0.0556	0.0688	0.0585	0.0474	0.0559	0.0456	0.0501	0.0506	0.0586	–	–	0.0471	0.053	–	0.0645
E108Y	0.0564	0.052	0.0561	0.0493	0.0349	–	0.0556	0.0735	0.0615	0.0614	0.0513	–	0.0548	–	–	0.0641	–	0.0567	0.0615
F95S	0.0606	0.057	0.0521	0.047	0.0582	–	0.0561	0.0517	0.0487	0.0529	–	0.0492	0.0485	0.0543	0.0658	0.0514	0.0421	–	0.0597
I86F	0.063	0.0737	0.062	0.0465	0.0722	0.089	0.0586	–	0.04	0.0628	0.0564	0.0559	0.0624	0.0543	–	0.0793	0.0393	–	0.0671
I86R	0.0321	0.0441	0.0511	–	–	–	0.0325	–	0.0449	0.0387	–	0.0458	–	–	–	0.0321	0.0472	0.0327	–
T71A	0.0619	–	0.0638	0.0529	–	0.121	–	0.0693	0.0593	0.0587	0.0346	–	0.0549	0.066	0.179	0.0681	–	0.0679	0.0419
